Whole data set: some 33,000 sequences, median “E-score (-0.5 to 0.5)” near -0.04, cut for the highest 2% near 0.36. Some of the results follow.
Biological target: T1, Hmlalpha2 (UniProt P0CY09)
T1 sequence: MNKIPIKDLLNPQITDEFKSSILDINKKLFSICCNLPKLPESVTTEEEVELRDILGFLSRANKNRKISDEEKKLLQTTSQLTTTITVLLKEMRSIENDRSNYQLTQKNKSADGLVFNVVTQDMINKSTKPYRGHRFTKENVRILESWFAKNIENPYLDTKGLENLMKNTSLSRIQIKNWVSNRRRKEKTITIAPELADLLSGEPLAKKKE
Test: PBM E-score (8-mer binding enrichment) (E-score (-0.5 to 0.5)); higher = stronger / more preferred TF binding; most listed sequences are background and not binding sites
Conditions: protein concentration: 200 nM; construct: GST-full length
In short: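 PURExpress in vitro transcription/translation supplied GST-tagged yeast transcription factors, either full-length or DNA-binding domain. Applied at about 100-200 nM to universal all-10-mer Agilent arrays double-stranded by primer extension, the bound protein was detected with fluorescent anti-GST. E-scores, modified Wilcoxon-Mann-Whitney statistics, were given by the Universal PBM Analysis Suite to ungapped eight-base words pooled with their reverse complements after masliner normalisation.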

Sequence	PBM E-score
AACTGGGA	-0.0704
AGAGGGTC	-0.282
AGGGAAAA	0.00608
AAAAAGGG	-0.139
CTGCATTC	-0.0597
CAACACAC	0.349
AAGTCGTC	-0.093
TACCCCTA	-0.126
AGCCGTTC	-0.338
TAGATCTA	0.0766
ATATCAAA	-0.0263
GGTCGGAC	-0.195
CGCAAGCG	-0.175
AGTGTAGA	0.171
CGCAGGGA	-0.215
CAGGCCTG	-0.104
ACTCGATG	0.138
CCTCAGGA	-0.333
ACTGGGTG	-0.255
GCTCGCAA	-0.0517
AAAACCCA	0.133
CCTTCTGA	-0.234
ATCTAGAA	0.0729
ACTCTTTC	-0.18
ATGATAAA	0.192

Sequence	PBM E-score
CCTAATAA	0.00353
CTTCGTAA	0.177
CATCTAGG	-0.199
ATATACGG	0.147
CCCCAAAA	-0.0809
ATAAGCCC	-0.241
GGATACGA	0.00133
ACCAAGGT	-0.0823
TCTGTAAA	0.278
ACCATCCT	0.0751
AAATATCG	0.0929
CGCTGGGA	-0.216
AGTGTTGG	0.0228
CAACTACG	0.12
CGAGTACG	0.0847
CGTTGTTA	0.259
GAGGCGCC	-0.28
TAGGAAGA	-0.162
CACCCCAC	-0.241
CGCACGCA	0.0912
GTATTTCA	0.245
CAGGGACA	0.0284
AGCTCGGA	-0.319
ACGGATTC	-0.00996
TATGCGGA	-0.128

Sequence	PBM E-score
AAGTCTCT	-0.161
AGACGGGC	-0.192
ATCTACAG	0.151
GAGCTCAC	-0.325
CAATGTGA	0.224
GCTGGCCA	-0.178
CCTACTTA	-0.0102
ACAGACAA	0.244
CACGGGCG	-0.0985
CTAGGGTC	-0.156
CAGACACA	0.035
AGTTGCTA	0.169
AGGCACAG	-0.131
ATCGGTAA	0.0421
AGCCTTGA	-0.0407
CGAATAAA	0.0121
CGAGGCAA	0.126
TCACTCGA	-0.0745
AACAGCGT	0.171
CAAACCCC	-0.17
CGTGACGC	0.0519
AATCAGCT	0.0644
GAATAAGC	-0.0806
ACAAAGAA	0.251
GATAATGC	0.0782

Sequence	PBM E-score
ATTAACTG	0.134
GATCGGAA	-0.134
GTCTCCTA	-0.125
TGCTAGAA	0.0692
CTGAGGCC	-0.236
GGATGTAC	0.225
AAGATTCT	-0.0883
GTTCACGA	0.0957
CTCTACAG	0.0676
CAGTTCTA	0.0395
ATAGCTAA	-0.129
ATGGCTAA	0.0205
AAACGCGG	0.171
ATCTCCCG	-0.157
CGTTAGTC	-0.0428
ACTAGGAA	-0.201
ATCGAATC	-0.0003
GCAAATGC	-0.12
CCGCCGAC	-0.0741
CGGACGTA	0.0834
AATTAGGT	0.0936
AGCGACCA	-0.105
ATTAAGCC	-0.183
CTCTGAAA	-0.154
CATCTATA	-0.136

Sequence	PBM E-score
GAGCAGTA	0.0651
CCGCCCGG	-0.273
AATTATGC	0.02
GCCTCAGC	-0.244
CTCGTGTC	0.257
CTACTTTA	0.146
AGCCAGCA	-0.236
TGAGTCAA	0.17
AACGGTAC	-0.00027
AATGATCA	0.0844
GCATTCGC	-0.124
ATTGGCTC	-0.0268
ATCGGGGG	-0.434
CGAAGGTC	-0.346
ACGCCCTC	-0.0261
GCGAAAGA	-0.0935
AGCGAAAT	-0.0407
GAATACAA	0.352
GACAAAAA	0.0289
CGTTGCGC	-0.00136
ATGAATTA	0.178
CCTACGTC	-0.133
ATCAGTCG	0.0621
CATTAACC	0.128
ACTGTTCT	-0.0672

Sequence	PBM E-score
ATTCACTC	0.145
AAAACCAA	0.147
CATTCCCG	-0.19
GGGGAGTA	-0.225
ATACTTGG	-0.152
ATCTATGG	-0.335
AATGGGTG	-0.0978
ACGAGACA	-0.0493
AAAGGCCG	-0.212
GTGTCAAA	0.382
GGCAGTAC	0.0805
CCATTGGG	-0.227
ATTTCAAG	0.099
GCCGGTAC	-0.0163
AAGAGAGA	-0.0152
GCGCATCC	-0.0678
GTATACAA	0.291
CAGTACAA	0.127
AAAAGCTT	0.115
ACATGTCC	0.351
AATCTCAC	-0.104
GTACGGGA	-0.121
CAGTGATA	-0.0336
AATTCCAG	0.0676
AATTTAAG	0.0542

Sequence	PBM E-score
CATCCTCA	-0.0355
CTGCTCAC	-0.0448
CTGTCAAC	0.198
GAACTGTA	0.112
GGCATCAA	-0.165
CAAATAGG	-0.00423
CCATCACG	0.00264
GTAGTGCA	0.0993
ACACGACC	0.396
AGACTTGG	-0.207
CATCTCGA	-0.0276
CCGGCCTC	-0.221
GCCGGTAA	0.0399
ATAGTTCC	-0.0756
AACTAACT	-0.0445
CAAATTCG	-0.179
GCAGAACC	-0.038
TCAAAAGA	-0.133
ACCTGCGA	-0.062
AATTTGTA	0.258
TAGCTCGA	-0.0496
CCTTCTGC	-0.354
